Data on 89 compounds can be found in PubChem BioAssay AID463173 (ICCB-Longwood Screening Facility, Harvard Medical School, 2010).

Molecules are shown by their SMILES. In all, about 52,000 compounds went through this assay and about 1,700 (3.3%) were called active. Cut-off read from the data, not from the text of the source: active = survival mostly below about 52% (no sharp cut-off); inactive = mostly above about 56%. This is one part of the list.

This experiment has as its system Wild type. Nature of the experiment: growth inhibition of S. aureus wild type versus tarO mutant, primary screen, teichoic acid synthesis inhibitors, RN4220, OD600 (AID 463173). Conditions: S. aureus RN4220 wild type/DeltatarO growth, OD600, 18 h, active compounds read low, screened at 18.75 µg/mL (by protocol).
As for `O=C(O)C1C2C=CC3(CN(C(c4ccccc4)c4ccccc4)C(=O)C13)O2` (centres undefined), the survival was inactive: 114%. Turning to `COC(=O)c1ccc2oc(=O)c(S(=O)(=O)c3ccc(C)cc3)cc2c1`, the survival is inactive: 86%. In the case of `CCCC(=O)Nc1cccc(-c2nc3cc(C)c(C)cc3o2)c1C`, the survival was inactive: 86%. For `COc1ccc(C(=O)Nc2nccs2)cc1OC` the value was inactive: 104%; for `Cc1ccc(CNC(=O)C2CCN(c3nc4ccc(C)cc4[nH]3)CC2)cc1`, inactive: 131%; for `COc1cc(OC)c(NC(=O)c2cnc(N3CCCC3)nc2C)cc1Cl`, inactive: 73%. Take `CCSc1ncc(Cl)c(C(=O)Nc2sc(C(C)=O)c(C)c2C(=O)OC)n1`: the survival was inactive: 76%. Take `Cc1ccc2c(c1)c1c(c(=O)n(-c3cccc(Cl)c3)c(=O)n1C)n2C`: the survival is inactive: 58%. Then `COc1ccc(CNC(=O)c2ccc(Sc3ccc(Cl)cc3)c(NC(C)=O)c2)c(OC)c1`, with inactive: 73%. Consider `O=C1CN(C(=O)COc2ccc(Cl)cc2Cl)C(c2ccc(F)cc2)c2cc(F)ccc2N1` (centres undefined), for which the survival was inactive: 43%. For `COc1ccc(C(=O)c2oc3ccccc3c2NC(=O)c2nc(SC)ncc2Cl)cc1Cl` the value was inactive: 91%; for `CCOC(=O)c1c(NC(=O)c2cc3nc(-c4ccc(OC)cc4)cc(C(F)(F)F)n3n2)sc(C)c1C`, inactive: 129%. For `CCc1cccc(NC(=O)c2c(C)oc3ncnc(N4CCCCC4)c23)c1` the value was inactive: 53%; for `O=C(Nc1ccc2nc(C3CC3)n(Cc3ccccc3)c(=O)c2c1)C1CC1`, inactive: 104%.

`CC(C)c1ccc(Nc2cc(C(=O)NCc3cccs3)c3ccccc3n2)cc1`: the survival was inactive: 92%.

Turning to `CCOC(=O)c1nnn(C(CC)C(=O)Nc2c(C)cccc2C)c1C(=O)OCC` (centres undefined), the survival is inactive: 90%. Regarding `CCOC(=O)N1CCc2c(sc(NCc3cccs3)c2C(=O)Nc2cc(OC)ccc2OC)C1`, the survival is inactive: 73%. Turning to `CCN(CC)C(=O)CSc1nnc2[nH]c(=O)cc(C)n12`, the survival was inactive: 71%. For the compound `CC(C)CNC(=O)C1CCN(c2ccc(S(=O)(=O)N3CCOCC3)cc2)CC1`, the survival is inactive: 108%. For `Cc1ccc(NC(=O)N2CCN(c3nnc(C)c4c(C)n(-c5ccccc5)nc34)CC2)c(Cl)c1` the value was inactive: 99%; for `CCOc1ccc2nc(N3CCCC(C(=O)NCc4ccc(OC)cc4)C3)sc2c1` (centres undefined), inactive: 85%; for `CCc1ccccc1NC(=O)CCCN1C(=O)COc2ccc(C)cc21`, inactive: 74%. In the case of `CCNc1nc(Oc2ccc(OCC(=O)OC)nn2)nc(N2CCOCC2)n1`, the survival is inactive: 70%. Then `CCOc1ccc(-c2cccc(NS(=O)(=O)c3ccc(Cl)s3)c2)nn1`, with inactive: 73%; and `COc1ccc2cc(-c3cn4c(n3)sc3cc(F)ccc34)c(=O)oc2c1`, with inactive: 98%. On to `CC(C)S(=O)(=O)c1oc(-c2ccc(F)cc2)nc1S(=O)(=O)c1ccc(F)cc1`, for which the survival is inactive: 26%. Regarding `CC[N+](C)(C)Cc1ccco1`, the survival is inactive: 107%. For `Cc1cccc(OCC(=O)N(Cc2cccc(Cl)c2)Cc2ccco2)c1C` the value was inactive: 85%; for `CCN(C1CCCCC1)S(=O)(=O)c1cccc(S(=O)(=O)N2CCCC2)c1`, inactive: 111%. Then `Cc1ccc(S(=O)(=O)c2nc(-c3ccccc3)oc2N2CCCCCC2)cc1`, with active: 6%.

`N#Cc1c(N)nc(SCc2ccccc2)c(C#N)c1-c1cccs1`: the survival was inactive: 100%.

In the case of `COc1ccccc1C(OC(=O)c1ccco1)C(=O)NCC1CCCO1` (centres undefined), the survival was inactive: 105%.

As to `COc1cccc(C(=O)NCC(c2ccc(N(C)C)cc2)N2CCOCC2)c1OC` (centres undefined), the survival was inactive: 130%. Then `Cc1ccccc1CSc1nc(-c2ccccc2)nc2c1Cc1c(CO)cnc(C)c1O2`, with inactive: 118%; and `CCOC(=O)c1c(S(=O)(=O)N2CCCC(C(=O)Nc3cc(C)ccc3OC)C2)c(C)n(C)c1C` (centres undefined), with inactive: 84%; and `CC(C)CCNC(=O)N1CCN(S(=O)(=O)c2ccc3c(ccn3C)c2)CC1`, with inactive: 70%. For `CC1CCN(S(=O)(=O)c2ccc3c(c2)N(CC(=O)N2CCN(c4ccc(Cl)cc4)CC2)C(=O)CO3)CC1` the value was inactive: 75%; for `CCOc1ccc(CCNC(=O)CCc2cn(Cc3ccc(C)cc3)c3ccccc23)cc1`, inactive: 93%; for `CCCCNC(=O)CCn1c(=O)c2ccccc2n(Cc2cc(C)ccc2C)c1=O`, inactive: 89%.

For the compound `COc1cccc(C2=NN(C(C)=O)C(c3cn(-c4ccccc4)nc3-c3cccs3)C2)c1` (centres undefined), the survival is inactive: 140%. Then `Cc1ccc(S(=O)(=O)N2CC=C(c3ccc(F)cc3)CC2)cc1`, with inactive: 108%; and `CCCC(=O)Nc1nnc(SCc2cc(=O)c3cc(C)ccc3[nH]2)s1`, with inactive: 70%; and `O=C(c1ccc(CSc2nc3ccncc3n2Cc2ccccc2F)cc1)N1CCCCCC1`, with inactive: 91%. On to `Cc1ccc(C)c(N2CCN(C(=O)c3cc(S(=O)(=O)N4CCCCC4)cn3C)CC2)c1`, for which the survival was inactive: 73%.

Consider `COc1ccc2[nH]cc(CCNC(=O)Nc3ccc(F)cc3)c2c1`, for which the survival is inactive: 95%. Take `CC(C)c1ccc(Nc2cc(C(=O)NCCc3ccccc3)c3ccccc3n2)cc1`: the survival was inactive: 84%. `Cc1csc(N(C)C(=O)CSc2nnc(COc3cccc4ccccc34)o2)n1`: the survival is inactive: 116%. Then `O=C(Cn1ncc2c3ccccc3n(Cc3ccc(Cl)cc3)c2c1=O)NCCCc1ccccc1`, with inactive: 88%; and `COc1ccc(Nc2oc(-c3ccc(COc4ccc(OC)cc4)o3)nc2C#N)cc1`, with inactive: 86%; and `CCCCN(CC)c1ncnc2c1sc1nc(N3CCOCC3)c3c(c12)CCCC3`, with inactive: 55%. For `Cc1ccc(C)c(S(=O)(=O)c2nnn3c2nc(N2CCCC2)c2sccc23)c1`, the survival is inactive: 88%. For `CCC(C)NC(=O)C1CCN(C(=O)c2cc3sccc3n2Cc2ccc(Cl)cc2)CC1` (centres undefined) the value was inactive: 71%; for `CCC12C=CCN3CCC4(c5ccc(OC)cc5NC4C(O)(C(=O)OC)C1OC(C)=O)C32` (centres undefined), inactive: 100%.

For `NCC1OCCc2ccccc21` (centres undefined), the survival was inactive: 114%. Then `CCc1ccccc1N1CC(c2nc3ccccc3n2CC(C)C)CC1=O` (centres undefined), with inactive: 91%; and `CC(C)(C)C1CCc2nc(NC(=O)COc3ccc(F)cc3)sc2C1` (centres undefined), with inactive: 131%.

As for `CCCCN(CC)CCCn1cnc2c([nH]c3ccc(Cl)cc32)c1=O`, the survival is inactive: 105%. With `CCC(=O)Nc1ccccc1-c1nc2ccccc2n(C(CC)C(=O)Nc2cccc(C(C)=O)c2)c1=O` (centres undefined), the survival was inactive: 108%. Then `Cc1oc(-c2ccc(C(=O)Nc3ccc(F)cc3F)cc2)nc1COc1ccccc1`, with inactive: 82%. For `CC(C)(C)c1ccc(OCCSc2nc(-c3cccs3)nc3cc(=O)[nH]n23)cc1` the value was inactive: 70%; for `O=C(N/N=C/c1ccco1)C1CN(S(=O)(=O)c2ccccc2)CCN1S(=O)(=O)c1ccccc1` (centres undefined), inactive: 33%; for `CC(=O)Nc1ccc(-n2cc3c(c2-c2ccc(C)cc2)c(=O)n(C)c(=O)n3C)cc1`, inactive: 84%. Then `CN(C)C(=O)c1ccc2c(c1)N(CC(=O)NCc1ccc(F)cc1)C(=O)C1CCCCN21` (centres undefined), with inactive: 81%. As for `O=C1C(c2ccccc2)=C(c2ccccc2)C(=O)N1O`, the survival was inactive: 119%. Take `CCCC(=O)Oc1c(Sc2ccc(Cl)cc2)c(C)nn1-c1ccccc1`: the survival was inactive: 30%. For `CCOc1nc(NC(=O)NS(=O)(=O)Oc2ccc(Cl)cc2)nc(-c2ccccc2)n1` the value was inactive: 78%; for `Cc1ccc(NC(=O)C(Cc2ccccc2)NS(=O)(=O)c2ccc3c(c2)c(=O)n(C)c(=O)n3C)cc1` (centres undefined), inactive: 71%; for `CCN(C(=O)c1cc(S(=O)(=O)N2CCOCC2)cn1C)c1ccc(OC)cc1`, inactive: 86%. For `CCOc1ccc(C(C)C)cc1S(=O)(=O)Nc1cccc(-c2ccc(N3CCOCC3)nn2)c1` the value was inactive: 112%; for `Cn1cc(C(=O)O)c(=O)c2cc(S(=O)(=O)N3CCCCC3)ccc21`, inactive: 81%; for `Cc1ccc(CN2C(=O)c3ccccc3S(=O)(=O)c3ccc(C(=O)OCC4CCCO4)cc32)cc1` (centres undefined), inactive: 65%. With `CC(C)(C)c1ccc(OCC(=O)N(Cc2ccco2)Cc2ccccc2F)cc1`, the survival is inactive: 76%. Regarding `CCC(C)NC(=S)N1CCN(C)CC1` (centres undefined), the survival is inactive: 89%. `Cc1ccc(-c2ccc(C#N)c(=O)n2CC(=O)N(C)C)cc1`: the survival is inactive: 105%.

Turning to `Cc1cccn2c(=O)c3cc(C(=O)NCCc4ccc(S(N)(=O)=O)cc4)n(C)c3nc12`, the survival was inactive: 96%. On to `COc1ccc(OC)c(C2C(C(N)=O)=C(C)Nc3nc(-c4cccc(Cl)c4)nn32)c1` (centres undefined), for which the survival was inactive: 130%.

As for `Cc1ccc2[nH]c(=O)c(CN(Cc3nnnn3CCc3ccccc3)C3CCCC3)cc2c1`, the survival is inactive: 109%. In the case of `Cc1ccc2c(c1)cc1c(=O)n(CC(=O)NCc3ccco3)nc(C)n12`, the survival was inactive: 79%.

Consider `COc1cc(OC)cc(-c2nnc(SCC(=O)N3CCC(C)CC3)o2)c1`, for which the survival is inactive: 79%. `COc1ccc(CCNC(=O)CCn2c(=O)c3ccccc3n(CC(=O)Nc3cccc(C)c3)c2=O)cc1OC`: the survival is inactive: 100%. For `CC(=O)c1ccc(NC(=O)Cn2c(-n3nc(C)cc3C)nc(C)cc2=O)cc1` the value was inactive: 83%. For `COc1cc(C(=O)Nc2cccc(OCc3cc(=O)n4c(C)csc4n3)c2)cc(OC)c1OC` the value was inactive: 94%. For `Cc1nn2c(=O)cc(COC(=O)c3ccccc3NC(=O)C(C)C)nc2s1` the value was inactive: 74%; for `COc1cccc(-n2cc(C(=O)Oc3ccc(F)cc3)c3ccccc3c2=O)c1`, inactive: 73%; for `CCCC(=Nc1ccccc1O)C1=C(O)CC(CC(C)SCC)CC1=O` (centres undefined), inactive: 108%. Consider `COCCn1nnnc1CN1CCC(NC(=O)Nc2cccc(OC)c2)CC1`, for which the survival is inactive: 118%. Then `COc1ccc(S(=O)(=O)N2CCC(c3nnc(-c4ccccc4C)o3)CC2)c(OC)c1`, with inactive: 91%. Then `Cc1noc2ncnc(N3CCCC(C(=O)NCCC(C)C)C3)c12` (centres undefined), with inactive: 78%. Regarding `CCOC(=O)c1ccc(N=c2sc(C(=O)OC)cc(=O)n2C2CC2)cc1`, the survival is inactive: 113%.
